# Experimental data reported in the supplement of paper PMC4967469.
# Lines with a small IC50 respond at low doses; fits outside the tested doses are given as limits. AUC, from the same fit, is the share of area under the viability curve across the 256-fold dose range; values near 1 show little effect. For part of these data: The top dose, if marked as inferred, was derived from the fitted curves, not read from the paper.
# Columns and labels:
# Experiment in all cases: Viability of human cancer cell lines after 72 h of drug (GDSC screen)
# ABT-263 = compound: CC1(C)CCC(c2ccc(Cl)cc2)=C(CN2CCN(c3ccc(C(=O)NS(=O)(=O)c4ccc(N[C@H](CCN5CCOCC5)CSc5ccccc5)c(S(=O)(=O)C(F)(F)F)c4)cc3)CC2)C1 [ABT-263]; conditions: top dose 2 µM; top dose inferred
# Method: (§1)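 Human cancer cell lines in 384-well plates, medium with 10% serum, drug for 72 h over a 256-fold dose range (nine 2-fold or five 4-fold steps up to the top dose). Adherent lines were fixed and stained with the nucleic acid dye Syto60, suspension lines read with resazurin; signal relative to control wells, capped at 0 and 100%. One two-parameter sigmoid per drug and line, fitted in a mixed model over all curves with the slope shared within a line.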
# GW843682X = compound: COc1cc2ncn(-c3cc(OCc4ccccc4C(F)(F)F)c(C(N)=O)s3)c2cc1OC [GW843682X]; conditions: top dose 0.256 µM
# Method: as §1
# piperlongumine = compound: COc1cc(/C=C/C(=O)N2CCC=CC2=O)cc(OC)c1OC [piperlongumine]; conditions: top dose 10 µM
# Method: as §1
# GW 441756 = compound: Cn1cc(/C=C2\C(=O)Nc3cccnc32)c2ccccc21 [GW 441756]; conditions: top dose 2 µM; top dose inferred
# Method: as §1
# PIK-93 = compound: CC(=O)Nc1nc(C)c(-c2ccc(Cl)c(S(=O)(=O)NCCO)c2)s1 [PIK-93]; conditions: top dose 20 µM
# Method: as §1
# Salubrinal = compound: O=C(/C=C/c1ccccc1)NC(NC(=S)Nc1cccc2cccnc12)C(Cl)(Cl)Cl [Salubrinal]; conditions: top dose 16 µM; top dose inferred
# Method: as §1
Cell Line,AUC (ABT-263),IC50 (ABT-263),AUC (GW843682X),IC50 (GW843682X),AUC (piperlongumine),IC50 (piperlongumine),AUC (GW 441756),IC50 (GW 441756),AUC (PIK-93),IC50 (PIK-93),AUC (Salubrinal),IC50 (Salubrinal)
"KP-N-YN (neuroblastoma, adherent)",0.618,274 nM,0.967,> 256 nM,0.811,5950 nM,0.96,> 2000 nM,0.957,> 20000 nM,0.987,> 16000 nM
"GRANTA-519 (B-cell lymphoma, suspension)",0.666,344 nM,0.688,50.5 nM,0.826,5260 nM,0.583,205 nM,0.891,19100 nM,0.967,> 16000 nM
"CTB-1 (B-cell lymphoma, suspension)",0.978,> 2000 nM,0.791,164 nM,0.754,4540 nM,0.976,> 2000 nM,0.751,8830 nM,0.889,> 16000 nM
"Mo-T (hairy cell leukaemia, suspension)",0.568,193 nM,0.987,> 256 nM,0.688,2130 nM,0.963,> 2000 nM,0.824,12200 nM,0.984,> 16000 nM
"SK-UT-1 (soft tissue, adherent)",0.945,> 2000 nM,0.557,22.6 nM,0.635,1420 nM,0.986,> 2000 nM,0.954,> 20000 nM,0.882,14300 nM
"A4-Fuk (B-cell lymphoma, suspension)",0.975,> 2000 nM,0.495,15.4 nM,0.797,4970 nM,0.973,> 2000 nM,0.859,17700 nM,0.86,14400 nM
"ALL-PO (lymphoblastic leukaemia, suspension)",0.064,< 7.81 nM,0.329,5.18 nM,0.804,5370 nM,0.858,1790 nM,0.35,468 nM,0.709,4040 nM
"COLO-824 (breast, adherent)",0.809,1070 nM,0.977,> 256 nM,0.799,4930 nM,0.986,> 2000 nM,0.818,11600 nM,0.832,10500 nM
"GB-1 (glioma, adherent)",0.95,> 2000 nM,0.561,24.2 nM,0.698,2510 nM,0.97,> 2000 nM,0.62,2840 nM,0.981,> 16000 nM
"TE-5 (oesophagus, adherent)",0.89,> 2000 nM,0.559,23.8 nM,0.767,4270 nM,0.973,> 2000 nM,0.945,> 20000 nM,0.923,> 16000 nM
"DMS-114 (small cell lung carcinoma, adherent)",0.974,> 2000 nM,0.719,74.2 nM,0.811,6310 nM,0.939,> 2000 nM,0.657,3670 nM,0.969,> 16000 nM
"RXF393 (kidney, adherent)",0.829,1970 nM,0.682,63.4 nM,0.669,2220 nM,0.926,> 2000 nM,0.717,6660 nM,0.874,> 16000 nM
"NCI-H1869 (lung squamous cell carcinoma, adherent)",0.956,> 2000 nM,0.929,> 256 nM,0.828,7250 nM,0.924,> 2000 nM,0.936,> 20000 nM,0.985,> 16000 nM
"BE-13 (lymphoblastic leukaemia, suspension)",0.273,29.7 nM,0.231,2.84 nM,0.809,4820 nM,0.984,> 2000 nM,0.617,2570 nM,0.809,7690 nM
"H9 (lymphoid neoplasm, suspension)",0.924,> 2000 nM,0.633,34.7 nM,0.628,1310 nM,0.973,> 2000 nM,0.329,461 nM,0.939,> 16000 nM
"ES5 (Ewing sarcoma, adherent)",0.81,1250 nM,0.957,> 256 nM,0.828,7450 nM,0.925,> 2000 nM,0.41,680 nM,0.98,> 16000 nM
"OCI-M1 (acute myeloid leukaemia, suspension)",0.791,675 nM,0.633,33.8 nM,0.848,4940 nM,0.995,> 2000 nM,0.861,10800 nM,0.986,> 16000 nM
